Data as given in PubChem BioAssay AID1508624 (National Center for Advancing Translational Sciences (NCATS), 2021).
Screen size: about 48,000 compounds; about 120 (0.25%) were called active. About 4% were inconclusive and are not listed. The call rests on the fitted dose curve; in most records, active means well fitted activation curve with a large enough effect; inconclusive means small, poorly fitted or top-dose-only effect, or another doubt; inactive means no such curve, though single readings can be large or run the other way. The list shows a part of the results.

Experiment: Primary qHTS for Identification of Small Molecule Activators of Huntingtin-Antisense Promoter Activity; further: nearly all actives have a fitted effect of over 55% in size
Conditions: HEK293 HTT-AS promoter firefly luciferase reporter, 24 h; series mostly up to 57.5 µM; activity change, positive = activation: at the top concentration
Summary of the method: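 Firefly luciferase signal from promoter-reporter HEK293 cells was scaled between vehicle (0%) and zero RLU (-100%). Compounds were tested at final concentrations of up to 57.5 uM over 24 h at 37 degrees C. PTC124 at 50 uM final served as control inhibitor.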

Activity change, positive = activation, inactive:
CSc1ccc(CCNC(=O)CCc2c(C)nc3c4cccnc4nn3c2C)cc1 -15.8%
O=C(Nc1ccc(F)c(F)c1)c1ccc(F)c(S(=O)(=O)N2CCC3(CC2)OCCO3)c1 -84.9%
COc1cccc(CNCc2c(C(=O)O)c(C)n(Cc3ccc(F)cc3Cl)c2C)c1OC -9.68%
O=C(CC1N=C2c3ccccc3N=C(SCc3cccc(F)c3)N2C1=O)NC1CCCCC1 (stereo unspecified) -10.5%
CCSc1nc2sc3c(c2c(=O)n1-c1ccc(C)cc1)CCCC3 -29.1%
CCOC(=O)/C=C(C)/C=C/C=C(C)/C=C/c1c(C)cc(OC)c(C)c1C -8.24%
O=C(Cn1c(=O)n(Cc2ccco2)c(=O)c2sc3ccccc3c21)Nc1ccccc1C(F)(F)F -11.2%
Cc1nc2nc(C)c(CCC(=O)NCc3cccc(Cl)c3)c(C)n2n1 -18%
Cc1ccc(-n2nc(C)c3c(C)c(CCC(=O)NCc4ccccc4Cl)c(C)nc32)cc1 -16.5%
COc1ccc(C2=C(C(C)=O)Sc3nnc(-c4ccccc4)n3N2C(C)=O)cc1 -0.898%
COc1cc(NC(=O)c2cc3cc4cc(OC)ccc4nc3o2)cc(OC)c1 -5.54%
CCCCNC(=O)NS(=O)(=O)c1ccc(N)cc1 -9.39%
CCOc1cc(C2NC(=O)c3c(sc4c3CCN(C)C4)N2)ccc1OC(=O)c1ccc(F)cc1 (stereo unspecified) 6.89%
CCOc1ccccc1N=Nc1c(C)[nH]n(-c2nc(-c3ccccc3)cs2)c1=O -7.4%
COc1ccc(CC(=O)Nc2ccc(-c3nc4ccccc4s3)c(C)c2)cc1 20.2%
COc1ccc(NC(=O)c2ccc3oc(=O)c(S(=O)(=O)c4ccc(F)cc4)cc3c2)c(OC)c1 -67.5%
CC(C)c1nc2sc3c(N4CCCCC4)ncnc3c2c2c1CCCC2 -8.96%
CCOc1ccc(-n2c(SCC(=O)c3ccccc3)nc3c([nH]c4ccccc43)c2=O)cc1 -7.1%
CC1(C)Cc2c(-c3ccccc3)c(-c3ccc(Cl)cc3)c(CC(=O)O)n2C1 -31.4%
COc1ccc(C(=O)Oc2ccc(C3NC(=O)c4c(sc5c4CCN(C)C5)N3)cc2OC)cc1 (stereo unspecified) 6.49%
Cc1ccc(Cl)cc1N1CCN(C(=O)c2cc(S(=O)(=O)N3CCCCC3)cn2C)CC1 -38.3%
CCn1c(=O)n(CC2CCC(C(=O)NC(C)C)CC2)c(=O)c2sccc21 (stereo unspecified) -7.98%
CC(C)(C)c1cc(NC(=O)Nc2ccc(-c3cn4c(n3)sc3cc(OCCN5CCOCC5)ccc34)cc2)no1 7.8%
COc1ccc(NC(=O)CSc2c(C(C)C)cnc3c2c(=O)n(C)c(=O)n3C)c(OC)c1 -4.64%
COc1ccc2cc3c(N)nn(C(=O)c4ccc(F)cc4Cl)c3nc2c1 -29.2%
CCOC(=O)c1cc(CC)sc1NC(=O)COc1ccccc1C -7.34%
Cc1cc(NC(=O)CN2CCC(O)CC2)nc2c1c(=O)oc1ccccc12 10.1%
COc1ccc(C(=O)NCC(c2ccc3c(c2)OCO3)N2CCN(C)CC2)cc1OC (stereo unspecified) -5.86%
CCOC(=O)c1c(C)[nH]c(C)c1S(=O)(=O)N1CCC(C(=O)Nc2ccc(OC)c(OC)c2)CC1 -8.13%
COc1ccc(Cl)cc1NC(=O)Cn1nnc(C(=O)NCc2cccs2)c1N -40%
COc1ccccc1NC(=O)COC(=O)CC(C)(C)CC1=NS(=O)(=O)c2ccccc2N1 -34.5%
COc1ccc2c(CNCc3ccco3)c(C(=O)O)n(Cc3ccccc3)c2c1 -24.1%
COc1cccc(N2CC(NC(=O)C3CCCC3)CC2=O)c1 (stereo unspecified) -4.57%
COc1ccc(N2CCN(C(=O)c3c4c(nc5ccccc35)C(=O)N(C3CCCCC3)C4)CC2)cc1 -10.8%
C=CCOc1ccccc1OCC(O)CNC(C)C (stereo unspecified) -5.18%
O=C(Nc1ccc2nc(SCC(=O)N3CCCC3)sc2c1)c1cccc(F)c1 -17.9%
CCc1ccc(-n2c(=O)c3ccc(C(=O)NCCc4ccccc4)cc3n(Cc3ccccc3C#N)c2=O)cc1 -5.44%
COc1ccc(-c2nc3ccccc3o2)cc1NC(=O)c1ccc(OCC(C)C)cc1 24.7%
COc1ccc(-c2nnc(SCC(=O)c3ccc(NC(C)=O)cc3)o2)cc1OC 1.83%
CSc1ccc(C2c3[nH]c4ccccc4c3CCN2C(=O)CCC2CCCC2)cc1 (stereo unspecified) -36.3%
COC(=O)c1c(-c2cccs2)csc1NC(=O)c1ccc(C(C)(C)C)cc1 -4.49%
Cc1cccc(Cc2c(C)nc3nc(SCc4cccc(F)c4)nn3c2C)c1 -17.5%
O=S(=O)(c1ccccc1)c1nnn2c1nc(NC1CCCCCC1)c1sccc12 -1.04%
CCOc1ccc(CCNC(=O)CN2C(=O)COc3ccc(S(=O)(=O)N(CC)CC)cc32)cc1 -27.4%
COc1cc(S(=O)(=O)n2ccnc2C(C)C)ccc1Br -22.6%
Cc1ccc(Cn2ccnc2SCC(=O)NC2CCCC2)cc1 -0.947%
COc1ccccc1CNC(=O)C(=O)NCC(c1cccnc1)N1CCN(c2ccc(F)cc2)CC1 (stereo unspecified) -46.2%
Cc1ccc(-c2nc(S(=O)(=O)c3ccc(C)cc3)c(N3CCCCC3)o2)cc1 0%
O=C(CN(c1cccc(C(F)(F)F)c1)S(=O)(=O)c1ccccc1)Nc1cccc(Cl)c1 -40.1%
CCCn1c2ccccc2c2cnn(CC(=O)NC(C)CC)c(=O)c21 (stereo unspecified) -23.1%
COc1ccc(OC(=O)CSc2nnc(-c3ccc(F)cc3)o2)cc1 -5.55%
CCCCOC(=O)/C(C#N)=C/c1ccc(-c2ccc(Br)cc2)o1 0.587%
Cc1ccc([N+](=O)[O-])c(Oc2ncnc3c2oc2ccccc23)c1 -17.8%
Cc1ccc(NC(=O)CCCN2C(=O)COc3ccc(C)cc32)c(C)c1 -8.14%
Cc1c(N)c(=O)n(-c2ccccc2)n1C -8.01%
Cc1ccc(N2C(=O)CSC23C(=O)N(CC(=O)Nc2ccc(C)cc2C)c2ccccc23)cc1 (stereo unspecified) -18.2%
COc1ccc2c(Sc3ccccc3)c(C(=O)N3CCC(C)CC3)[nH]c2c1 6.18%
CCOC(=O)c1c(-c2ccc(C)cc2C)csc1NC(=O)c1ccccc1Cl -12.2%
NC(=O)C1CCN(C(=O)c2ccc3c(c2)N(Cc2cccc(Cl)c2)C(=O)c2ccccc2S3(=O)=O)CC1 -13.6%
Cc1ccc2c(=O)cc(C(=O)Nc3c(C(=O)c4ccccc4)oc4ccccc34)oc2c1 -0.42% [at 11.5 µM, percent change from vehicle, -100% = no light]
CCOc1ccc(NS(=O)(=O)c2ccc3[nH]cc(C(=O)N(C)C4CCCCC4)c(=O)c3c2)cc1 0.865%
